Screen size: about 44,000 compounds; about 340 (0.77%) were called active. Not shown: some 5% with an inconclusive outcome. Calls follow the shape of the dose curve; as a rule, active = well fitted inhibition curve with a large enough effect; inconclusive = small, poorly fitted or top-dose-only effect; inactive = flat fitted curve, though single readings scatter. This is one part of the list.
Assay: Acumen qHTS Assay for Inhibitors of the mTORC1 Signaling Pathway in MEF (Tsc2-/-, p53-/-) Cells: Sytravon;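 also: plate controls were DMSO for no effect and rapamycin for full effect; nearly all actives have a fitted effect of over 50% in size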
Conditions: phospho-rpS6 immunofluorescence/PI, 24 h; series mostly up to 38.3 µM; activity change, negative = inhibition: at the top concentration
Outline: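 Plate MEFs (Tsc2-/-, p53-/-, empty vector) in DMEM/10% FBS; after 24 h add compound, incubate 24 h at 37 degree Celsius; fix in PFA/TX-100, block, stain phospho-rpS6 and 10 uM PI; scan at 488 nm; report % positive cells.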

Activity change, negative = inhibition, inactive:
CCOC(=O)c1c(C)[nH]c(C)c1S(=O)(=O)N1CCN(c2ccccc2OC)CC1 -5.56%
O=C(O)CCc1ccc(-c2ccccc2)n1-c1cccc(Br)c1 -11%
COc1cc(/C=C/c2nc(C#N)c(NC(C)c3ccccc3)o2)cc(OC)c1OC (configuration not stated) -18.5%
CN(Cc1ccccc1)C(=O)c1cc2c(s1)-c1ccc(Cl)cc1SC2 -1.59%
CCOc1ccc(CNC(=O)Cn2c(=O)c3cccn3c3ccc(F)cc32)cc1OC 2.99%
Cc1ccc(CNC(=O)Cn2c(=O)n(-c3ccccc3)c(=O)c3c2c2cc(C)ccc2n3C)cc1 2.69%
Cc1ccc(NC(=O)CCSc2nc(-c3ccc4c(c3)OCO4)cc(C(F)(F)F)n2)cc1 -17.6%
CCCCN(C)CCNC(=O)Cn1ncc2c([nH]c3ccccc32)c1=O -4.76%
CCOC(=O)CCN(c1ccccc1)S(=O)(=O)c1ccc2[nH]c(=O)ccc2c1 0.508%
CCc1ccc(Oc2nc3c(C)cccn3c(=O)c2/C=C(\C#N)c2nc3ccccc3s2)cc1 1.98%
O=C(c1ccc(Cl)cc1)n1nc(-c2ccco2)nc1NCc1cccs1 0.0071%
COc1ccc(CCCc2nnc(SCC(=O)Nc3ccccc3F)o2)cc1C -1.63%
CCOCCCNC(=O)CN1C(=O)c2c(c3ccccc3n2C)C1c1ccc(OC)cc1 (configuration not stated) -3.87%
COc1cccc(N(Cc2nnc3n2CCCCC3)C(=O)Nc2cccc(Cl)c2)c1 6.35%
O=C(Cc1csc2nc(-c3ccccc3)cn12)NCc1ccc(F)cc1 0%
CCOc1ccccc1NC(=O)N1CCCn2nc(C)cc21 4.6%
O=C(NCC(c1cccs1)S(=O)(=O)c1cccs1)c1ccc(C(F)(F)F)cc1 (configuration not stated) -0.804%
CCOC(=O)c1c(S(=O)(=O)N2CCCC(C(=O)Nc3ncccc3C)C2)c(C)n(C)c1C (configuration not stated) -3.02%
O=C(OCc1ccccc1Cl)c1ccc(-c2nnn(Cc3ccccc3Cl)n2)cc1 2.74%
Cc1ccc(NC(=O)CCc2c(C)nn(-c3ccc(N4CCOCC4)nn3)c2C)cc1F 5.01%
COc1ccc(N(C(=O)COc2ccc(Br)cc2)S(=O)(=O)c2ccc(C)cc2)cc1 -6.32%
COc1ccc(Cn2ccc3nc(C)c(C(=O)Nc4ccc(OC)cc4OC)cc3c2=O)cc1 -3.88%
O=C1Nc2cc(Cl)ccc2Oc2cc(Oc3ccccc3)ccc21 -27%
Cc1ccc(C)c(CN2C(=O)c3ccccc3S(=O)c3ccc(C(=O)NCc4ccco4)cc32)c1 (configuration not stated) 0.456%
Cc1cc(C)c(S(=O)(=O)Nc2cccc(-c3cn4ccccc4n3)c2)c(C)c1 -7.33%
Cc1ccc(NC(=O)Cn2cc(S(=O)(=O)NC(C)C)c(S(=O)(=O)NC(C)C)c2)cc1Cl -21.2%
COc1ccc(Oc2nc3c(c(=O)n(Cc4ccccc4Cl)c(=O)n3C)n2C)cc1 -5.64%
COC(=O)c1c(SCC(=O)Nc2ccccc2OC)[nH]c2ccccc2c1=O 6.45%
Cc1cc2ccccc2n1-c1ccc(C(=O)N2CCC(C(=O)NCc3ccc(F)cc3)CC2)s1 -6.5%
O=C(C1CC1)N1CCc2cc(Br)cc(S(=O)(=O)N3CCN(c4ccccc4F)CC3)c21 4.65%
COc1ccc(CNC(=O)Cn2ccc3cc(S(=O)(=O)N4CCCCCC4)ccc32)c(OC)c1 0%
Cc1ccc(N2CC(NC(=O)/C=C\c3ccc4c(c3)OCO4)CC2=O)cc1 (configuration not stated) -0.46%
O=C(/C=C/c1ccco1)Nc1ccc(Cl)c(-c2nc3cc(Cl)ccc3o2)c1 -5.36%
Cc1ccc(NC(=O)C2CCN(c3nn4c(=O)cc(C)nc4s3)CC2)cc1 3.93%
COc1cccc(NC(=O)c2ccc(CNS(=O)(=O)c3ccc4c(c3)C(C)(C)C(=O)N4C)cc2)c1 -14.4%
CC(C)n1c(=O)c2oc3ccccc3c2n(Cc2ccccc2F)c1=O -3.37%
Cc1ccc(-c2nnc(Nc3ccc(O)cc3)c3ccccc23)cc1S(=O)(=O)NCC1CCCO1 (configuration not stated) -12.5%
CCOC(=O)c1cccc(NC(=O)CCNS(=O)(=O)c2cccc3nonc23)c1 -17.4%
CC1=C(c2ccc(Cl)cc2)S(=O)(=O)NC1=NCc1ccc(C)cc1 3.5%
O=C(CSc1nc2c(oc3ccccc32)c(=O)[nH]1)Nc1cccc(Cl)c1 2.62%
CC12CN3CC(C)(CN(C1)C3c1ccc(OCc3ccccc3)cc1)C2=O (configuration not stated) -2.45%
Cc1ccc(CCNC(=O)c2ccc(CSCc3ccc(C)cc3)o2)cc1 8.05%
CCOC(=O)c1ccc(NC(=O)c2cc3c(n(-c4ccc(C)cc4)c2=O)CC(C)(C)CC3=O)cc1 12.8%
Cn1c(C(=O)N2CCC(C(=O)NCCc3ccc(S(N)(=O)=O)cc3)CC2)cc2sccc21 -0.545%
COc1ccc(-c2nc3scc(CCNS(=O)(=O)c4cccc(C(C)=O)c4)n3n2)cc1 -2.87%
CCc1ccc(NC(=O)Cn2c(=O)ccc3cc(S(=O)(=O)N4CCCC4)ccc32)cc1 -1.4%
Cc1ccc(NC(=O)CSc2nnc(C)c(=O)[nH]2)cc1 5.73%
CCOC(=O)c1cccc(Nc2cc(C)nc(C)n2)c1 -12.2%
Cc1nnc2c3ccccc3nc(N3CCN(c4cccc(Cl)c4)CC3)n12 -3.62%
CCOCCCn1c(=N)c(C(=O)NC2CCCC2)cc2c(=O)n3cccc(C)c3nc21 -6.19%
Cc1noc(Cn2c(=O)c3ccccc3n(CC(=O)Nc3ccccc3C(F)(F)F)c2=O)n1 -6.53%
CCc1ccc(NC(=O)c2oc3c(c2C)-c2[nH]ncc2CC3)cc1 2.11%
COc1ccccc1CNC(=O)CN1C(=O)CCCc2ccccc21 -0.696%
CCCCOc1ccc(C2c3c(oc4ccccc4c3=O)C(=O)N2c2nc(C)c(C(=O)OCC)s2)cc1OC (configuration not stated) 8.55%
CCc1ccc(NC(=O)c2ccc3c(c2)c(C)c(C)n3Cc2ccccc2)cc1 -13.7%
CC(=O)c1ccc(NC(=O)c2ccc(CN3C(=O)CCn4nc(C)cc43)cc2)cc1 -1.25%
COc1ccc(S(=O)(=O)NCCc2cn3ccsc3n2)cc1 -12.2%
Cc1ccc(CCNC(=O)CN2CCN(Cc3ccc(Cl)cc3)C2=O)cc1 -6.45%
O=C(CCC1N=C2c3ccccc3N=C(SCc3cccc(F)c3)N2C1=O)NCc1ccc(F)cc1 (configuration not stated) -2.43%
CCc1ccc(NC(=O)Cn2nnc(C(=O)Nc3cc(C)ccc3OC)c2N)cc1 -6.97%
O=C(Nc1ccccc1Br)N1CCN2CCCCC2C1 (configuration not stated) -12%
CCc1ccc(NC(=O)CN2C(=O)CCSc3ccc(S(=O)(=O)N4CCCC4)cc32)cc1 2.43%
